# The shares of active, inactive and inconclusive entries below differ from those in the screen. Potencies of inconclusive entries are doubtful fits and often do not repeat. The source made the active and inactive calls. Calls come from the whole dose curve; as a rule, active = well fitted curve in the direction sought with a large enough effect; inconclusive = small, poorly fitted or top-dose-only effect, or another doubt; inactive = no such curve, though single readings can be large; an effect the other way counts as inactive or inconclusive.
# Tests used:
# [1] = qHTS of pediatric cancer cell lines to identify multiple opportunities for drug repurposing: Primary screen for DAOY cells (AID 1347090); details: DAOY medulloblastoma viability, CellTiter-Glo luminescence, 48 h; activity change, negative = cytotoxic: at 46 µM (top of the series) unless noted; note: nearly all actives have a fitted effect of over 55% in size
# Procedure, shortened: (§1)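 Cell viability, CellTiter-Glo luminescence; 500-1,000 cells/well, 8- or 11-point titration, 48 h compound exposure at 37 degrees C, 5% CO2. Controls: DMSO neutral, bortezomib 2.3 µM final as positive.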
# [2] = qHTS of pediatric cancer cell lines to identify multiple opportunities for drug repurposing: Primary screen for TC32 cells (AID 1347089); note: nearly all actives have a fitted effect of over 60% in size
# Procedure, shortened: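 Luminescent ATP read-out (CellTiter-Glo) of metabolically active TC32 cells after 48 h exposure. Concentration-response curves came from 11-point (MIPE, 0.78 nM–46 µM) or 8-point (NPC, 0.59 nM–46 µM) primary titrations; follow-up used 11 points.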
# [3] = qHTS of pediatric cancer cell lines to identify multiple opportunities for drug repurposing: Primary screen for SK-N-MC cells (AID 1347093); details: SK-N-MC viability, CellTiter-Glo luminescence, 48 h; activity change, negative = cytotoxic: at 46 µM (top of the series)
# Procedure, shortened: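 Metabolically active cells were quantified by ATP-dependent luminescence (CellTiter-Glo, 15 min at room temperature) following 48 h treatment. Cells had been plated at 500-1,000 per well and settled for 5 h beforehand.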
# [4] = qHTS of pediatric cancer cell lines to identify multiple opportunities for drug repurposing: Primary screen for SJ-GBM2 cells (AID 1347091)
# Procedure, shortened: as §1
# [5] = qHTS of pediatric cancer cell lines to identify multiple opportunities for drug repurposing: Primary screen for A673 cells (AID 1347092); details: A673 Ewing sarcoma viability, CellTiter-Glo ATP luminescence, 48 h; activity change, negative = cytotoxic: at 46 µM (top of the series); note: nearly all actives have a fitted effect of over 45% in size
# Procedure, shortened: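 Cell viability of A673 measured by CellTiter-Glo ATP luminescence after 48 hours compound exposure. Dilution series spanned 0.78 nM to 46 µM (MIPE, 11-point) or 0.59 nM to 46 µM (NPC, 8-point); bortezomib 2.3 uM positive control.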
# [6] = qHTS of pediatric cancer cell lines to identify multiple opportunities for drug repurposing: Primary screen for BT-37 cells (AID 1347094)
# Procedure, shortened: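 500-1,000 cells/well; 5 h pre-incubation 37 °C/5% CO2; compound pinned; 48 h; CellTiter-Glo, 15 min RT; luminescence. MIPE 11-pt from 0.78 nM, NPC 8-pt from 0.59 nM final. Bortezomib 2.3 µM final as positive control.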
# Potency is the fitted concentration of half-maximal effect; tags give direction and shape of the fitted curve.
structure (smiles),measurement,setting,value
C[C@H](NC(=O)Cc1cc(F)cc(F)c1)C(=O)N[C@H](C(=O)OC(C)(C)C)c1ccccc1,Potency,[1],"inconclusive: 4.69 µM [cytotoxic, partial curve, poor fit]"
C1Cc2[nH]nc(-c3nn[nH]n3)c2C1,Potency,[2],inactive
same,Potency,[3],"inconclusive: 26.4 µM [cytotoxic, partial curve, poor fit]"
Cc1ncc([N+](=O)[O-])n1CC(C)O (stereo not given),Potency,[1],"inconclusive: 29.6 µM [cytotoxic, single point]"
O=C(OCC#CCSc1nnc(-c2cccc3ccccc23)o1)c1cc2ccccc2s1,Potency,[1],inactive
same,Potency,[4],inactive
COc1c(N2CCNC(C)C2)c(F)cc2c(=O)c(C(=O)O)cn(C3CC3)c12 (stereo not given),Potency,[1],inactive
CCN(CC)CCCC(C)Nc1nc(C)cc(Nc2ccc3nc(C)cc(N)c3c2)n1 (stereo not given),Potency,[2],inactive
same,Potency,[5],"inconclusive: 37.2 µM [cytotoxic, single point]"
COc1ccc2c(Oc3ccc(NC(=O)c4c(C)n(CC(C)(C)O)n(-c5ccccc5)c4=O)cc3F)ccnc2c1,Potency,[1],"inconclusive: 23.5 µM [cytotoxic, partial curve]"
same,Potency,[4],active: 0.059 µM
CO[C@H]1C[C@@H]2CC[C@@H](C)[C@@](O)(O2)C(=O)C(=O)N2CCCC[C@@H]2C(=O)O[C@H]([C@H](C)C[C@@H]2CC[C@H](OP(C)(C)=O)[C@H](OC)C2)CC(=O)[C@H](C)C=C(C)[C@@H](O)[C@@H](OC)C(=O)[C@H](C)C[C@H](C)C=CC=CC=C1C,Potency,[2],"inconclusive: 0.0147 µM [cytotoxic, full curve]"
same,Potency,[4],"inconclusive: 29.6 µM [cytotoxic, single point]"
same,Potency,[3],"inconclusive: 41.8 µM [cytotoxic, partial curve, poor fit]"
same,Potency,[6],"inconclusive: 34.3 µM [cytotoxic, single point]"
